Test results reported in ChEMBL document CHEMBL5606458, “ASAP - ZIKV NS2B-NS3 protease fluorescence single point” (2024).
About 160 (5.9%) of roughly 2,700 compounds showed an effect of 50% or more. The list shows a part of the results.

Target: Nonstructural protein 3 (Zika virus) (UniProt A0A024AXB9)
[1] = PRVABC59, Concentration 50.0 uM, Number of replicates 1.0
[2] = PRVABC59, Concentration 15.0 uM, Number of replicates 1.0
[3] = PRVABC59, Concentration 10.0 uM, Number of replicates 1.0

Sequence of UniProt A0A024AXB9 (A0A024AXB9 as listed by the source): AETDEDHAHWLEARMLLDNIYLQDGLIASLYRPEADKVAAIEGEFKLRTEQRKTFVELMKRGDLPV

## C=CCN(Cc1ccc(F)cc1)C(=O)C1CCN(c2ccc(C=O)cc2)CC1
[1]
  inhibition: 25%

## O=C(NCc1ccccc1OCc1ccccc1)c1cc(Cl)ccc1NS(=O)(=O)c1ccc(Oc2ccccc2Cl)cc1
[2]
  inhibition: 5.91%

## O=Cc1ccc(N2CCC(C(=O)Nc3ccccc3-c3ccccc3)CC2)cc1
[1]
  inhibition: 22.6%

## Cc1cnccc1NC(=O)c1cc(C)n(-c2ccccn2)n1
PRVABC59, Concentration 49.5 uM, Number of replicates 2.0, Standard deviation 2.6411112043159872 %
  inhibition: -1.81%
PRVABC59, Concentration 99.01 uM, Number of replicates 2.0, Standard deviation 0.8240702864618352 %
  inhibition: -0.667%
PRVABC59, Concentration 198.0 uM, Number of replicates 2.0, Standard deviation 4.266095871930931 %
  inhibition: -2.62%

## N#CC1(c2ccccc2)CCN(C(=O)c2cc(Cl)ccc2NS(=O)(=O)c2ccc(Oc3ccccc3Cl)cc2)CC1
[2]
  inhibition: 10.2%

## O=C(c1cc(Cl)ccc1NS(=O)(=O)c1ccc(Oc2ccccc2Cl)cc1)N1CC[C@@H](c2ccc(F)cc2)[C@H](COc2ccc3c(c2)OCO3)C1
[2]
  inhibition: 0.523%

## CNC(=O)CC[C@H]1CCCN(C(=O)C2CCN(c3ccc(C=O)cc3)CC2)C1
[1]
  inhibition: 24%

## O=C(Nc1cccc(F)c1[N+](=O)[O-])c1cc(Cl)ccc1NS(=O)(=O)c1ccc(Oc2ccccc2Cl)cc1
[2]
  inhibition: 22.5%

## COc1ccc(CN2CCC(c3c[nH]c4cccnc34)CC2)cc1
PRVABC59, Concentration 49.5 uM, Number of replicates 2.0, Standard deviation 0.21004326604655832 %
  inhibition: 0.598%
PRVABC59, Concentration 99.01 uM, Number of replicates 2.0, Standard deviation 0.8142417098777236 %
  inhibition: 6.55%
PRVABC59, Concentration 198.0 uM, Number of replicates 2.0, Standard deviation 1.1254172872302635 %
  inhibition: 14.8%

## O=Cc1ccc(N2CCC(C(=O)NCCCc3nnc4ccccn34)CC2)cc1
[1]
  inhibition: 26.2%

## O=C(NCc1ccccc1OC(F)(F)F)c1cc(Cl)ccc1NS(=O)(=O)c1ccc(Oc2ccccc2Cl)cc1
[2]
  inhibition: 32.6%

## C=CCN(Cc1cccc(OC)c1)C(=O)C1CCN(c2ccc(C=O)cc2)CC1
[1]
  inhibition: 22.3%

## O=C1[C@@H]2CCCN2[C@@H](c2ccc([N+](=O)[O-])cc2)N1c1ccc([N+](=O)[O-])cc1
PRVABC59, Concentration 49.5 uM, Number of replicates 2.0, Standard deviation 2.338852957072617 %
  inhibition: -3.37%
PRVABC59, Concentration 99.01 uM, Number of replicates 2.0, Standard deviation 0.6958571129694138 %
  inhibition: 2.46%
PRVABC59, Concentration 198.0 uM, Number of replicates 2.0, Standard deviation 1.5598791399729304 %
  inhibition: 12.6%

## c1ccc2c([C@H]3CCN(Cc4nc[nH]n4)C3)c[nH]c2c1
PRVABC59, Concentration 49.5 uM, Number of replicates 2.0, Standard deviation 3.046935859270677 %
  inhibition: 0.746%
PRVABC59, Concentration 99.01 uM, Number of replicates 2.0, Standard deviation 3.804317266359065 %
  inhibition: 2.65%
PRVABC59, Concentration 198.0 uM, Number of replicates 2.0, Standard deviation 3.7934353610053253 %
  inhibition: 6.17%

## COc1cc(NC(=O)c2cc(Cl)ccc2NS(=O)(=O)c2ccc(Oc3ccccc3Cl)cc2)nc(OC)n1
[2]
  inhibition: 21.5%

## CCOC(=O)c1coc(Cn2ncc(C3CCNCC3)c2C)n1
PRVABC59, Concentration 49.5 uM, Number of replicates 2.0, Standard deviation 0.16972261940821706 %
  inhibition: 0.506%
PRVABC59, Concentration 99.01 uM, Number of replicates 2.0, Standard deviation 0.7758746750349835 %
  inhibition: 1.97%
PRVABC59, Concentration 198.0 uM, Number of replicates 2.0, Standard deviation 2.5640234224727356 %
  inhibition: 6.52%

## CCc1ccc([N+](=O)[O-])cc1NC(=O)C1CCN(c2ccc(C=O)cc2)CC1
[1]
  inhibition: 26.3%

## O=Cc1ccc(N2CCC(C(=O)N3CCC(Oc4ccccc4)CC3)CC2)cc1
[1]
  inhibition: 26%

## COc1ccc(CCCNC(=O)c2cc(Cl)ccc2NS(=O)(=O)c2ccc(Oc3ccccc3Cl)cc2)cc1
[2]
  inhibition: 21.7%

## O=Cc1ccc(N2CCC(C(=O)N[C@@H](Cn3ccnc3)c3ccccc3)CC2)cc1
[3]
  inhibition: 21.2%

## O=C(NCc1ccccc1)c1cc(Cl)ccc1NS(=O)(=O)c1ccc(Oc2ccccc2Cl)cc1
[2]
  inhibition: 11.2%

## Cc1cnccc1NC(=O)Cc1csc(Cc2ccccc2)n1
PRVABC59, Concentration 49.5 uM, Number of replicates 2.0, Standard deviation 3.162795269897305 %
  inhibition: -0.368%
PRVABC59, Concentration 99.01 uM, Number of replicates 2.0, Standard deviation 4.368253468547214 %
  inhibition: -0.038%
PRVABC59, Concentration 198.0 uM, Number of replicates 2.0, Standard deviation 1.2762874105653153 %
  inhibition: -2.15%

## O=C(c1cc(Cl)ccc1NS(=O)(=O)c1ccc(Oc2ccccc2Cl)cc1)N1CCN(c2ccc(F)cc2F)CC1
[2]
  inhibition: 8.71%

## CCN(CC)CCC[C@H](C)NC(=O)C1CCN(c2ccc(C=O)cc2)CC1
[1]
  inhibition: 23.4%

## O=S(=O)(NC1CCCCC1)c1ccc(Oc2ccccc2Cl)cc1
PRVABC59, Concentration 49.5 uM, Number of replicates 2.0, Standard deviation 3.286338051007469 %
  inhibition: 3.44%
PRVABC59, Concentration 99.01 uM, Number of replicates 2.0, Standard deviation 2.983820700744522 %
  inhibition: 5.81%
PRVABC59, Concentration 198.0 uM, Number of replicates 2.0, Standard deviation 2.6312469714980353 %
  inhibition: 8.92%

## O=Cc1ccc(N2CCC(C(=O)NCc3cccc(F)c3Cl)CC2)cc1
[3]
  inhibition: 25.4%

## O=C(Nc1ccc(OC(F)(F)F)cc1Cl)c1cc(Cl)ccc1NS(=O)(=O)c1ccc(Oc2ccccc2Cl)cc1
[2]
  inhibition: 23%

## O=C(Nc1ccc(I)c(F)c1)c1cc(Cl)ccc1NS(=O)(=O)c1ccc(Oc2ccccc2Cl)cc1
[2]
  inhibition: 37.6%

## O=Cc1ccc(N2CCC(C(=O)N3CCC(NC(=O)c4ccccc4)CC3)CC2)cc1
[1]
  inhibition: 26.6%

## O=C(NCc1ccccc1Br)c1cc(Cl)ccc1NS(=O)(=O)c1ccc(Oc2ccccc2Cl)cc1
[2]
  inhibition: 38.5%

## O=Cc1ccc(N2CCC(C(=O)N3CCC(n4c(=O)[nH]c5ccccc54)CC3)CC2)cc1
[1]
  inhibition: 29.4%

## O=C(Nc1ccc(Br)c(Cl)c1Cl)c1cc(Cl)ccc1NS(=O)(=O)c1ccc(Oc2ccccc2Cl)cc1
[2]
  inhibition: 21.6%

## COc1c(C)cnc(CN(C)C(=O)c2cc(Cl)ccc2NS(=O)(=O)c2ccc(Oc3ccccc3Cl)cc2)c1C
[2]
  inhibition: 14.8%

## CCS(=O)(=O)N1CCN(C(=O)C2CCN(c3ccc(C=O)cc3)CC2)CC1
[1]
  inhibition: 21.9%

## Cc1cc(CO)c2cccc(Cc3cccc(NC(=O)[C@@H]4CC(=O)CCN4)c3)c2n1
PRVABC59, Concentration 49.95 uM, Number of replicates 2.0, Standard deviation 1.827188951744908 %
  inhibition: 6.74%
PRVABC59, Concentration 99.9 uM, Number of replicates 2.0, Standard deviation 1.0739192331465606 %
  inhibition: 21.6%

## Cc1cnccc1NC(=O)c1cccc2c1NC(=O)CO2
PRVABC59, Concentration 49.5 uM, Number of replicates 2.0, Standard deviation 0.9011512089054917 %
  inhibition: -7.2%
PRVABC59, Concentration 99.01 uM, Number of replicates 2.0, Standard deviation 0.10792223182135952 %
  inhibition: -9.6%

## CCn1c2ccccc2c2cc(NC(=O)c3cc(Cl)ccc3NS(=O)(=O)c3ccc(Oc4ccccc4Cl)cc3)ccc21
[2]
  inhibition: 13.9%

## Cc1cc(N)cc(CNc2cccc3c(CO)cc(C)nc23)c1
PRVABC59, Concentration 49.95 uM, Number of replicates 2.0, Standard deviation 0.17563299841544527 %
  inhibition: 36.2%
PRVABC59, Concentration 99.9 uM, Number of replicates 2.0, Standard deviation 0.025091199030293523 %
  inhibition: 52.6%

## Cc1cc(CO)c2cccc(Cc3cccc(C(=O)N[C@@H](CCN)C(=O)O)c3)c2n1
PRVABC59, Concentration 49.95 uM, Number of replicates 2.0, Standard deviation 2.396260968695063 %
  inhibition: -2.56%
PRVABC59, Concentration 99.9 uM, Number of replicates 2.0, Standard deviation 4.032220691467312 %
  inhibition: 5.61%

## O=C(c1cc(Cl)ccc1NS(=O)(=O)c1ccc(Oc2ccccc2Cl)cc1)N1CCC(c2nc3ccccc3[nH]2)CC1
[2]
  inhibition: 20.5%

## O=Cc1ccc(N2CCC(C(=O)Nc3ccc(I)c(F)c3)CC2)cc1
[1]
  inhibition: 22.3%

## O=C(Nc1cccc(-c2ccccc2)c1)c1cc(Cl)ccc1NS(=O)(=O)c1ccc(Oc2ccccc2Cl)cc1
[2]
  inhibition: 32.5%

## CCc1nc(CCNC(=O)C2CCN(c3ccc(C=O)cc3)CC2)cs1
[1]
  inhibition: 19.1%

## Cc1cnccc1NC(=O)c1csc(N2CCCCC2)n1
PRVABC59, Concentration 49.5 uM, Number of replicates 2.0, Standard deviation 6.1003469917591735 %
  inhibition: -5.96%
PRVABC59, Concentration 99.01 uM, Number of replicates 2.0, Standard deviation 7.07068107238354 %
  inhibition: -6.37%
PRVABC59, Concentration 198.0 uM, Number of replicates 2.0, Standard deviation 1.0147915879580212 %
  inhibition: -4.88%

## Cc1ccc([C@H](CNC(=O)C2CCN(c3ccc(C=O)cc3)CC2)N(C)C)cc1
[1]
  inhibition: 19.9%

## Cc1cc(CO)c2cccc(NC(=O)c3ccc(-c4ccccn4)s3)c2n1
PRVABC59, Concentration 49.95 uM, Number of replicates 2.0, Standard deviation 1.3900261182154205 %
  inhibition: 0.82%
PRVABC59, Concentration 99.9 uM, Number of replicates 2.0, Standard deviation 1.1842819360840948 %
  inhibition: 7.83%

## CN(Cc1cccc2cccnc12)C(=O)c1cc(Cl)ccc1NS(=O)(=O)c1ccc(Oc2ccccc2Cl)cc1
[2]
  inhibition: 26.2%

## O=C(c1ccn([C@H]2CCCNC2)n1)N1CCO[C@@H](c2n[nH]c(CO)n2)C1
PRVABC59, Concentration 49.5 uM, Number of replicates 2.0, Standard deviation 3.0216142562611923 %
  inhibition: -2.13%
PRVABC59, Concentration 99.01 uM, Number of replicates 2.0, Standard deviation 3.462904886608658 %
  inhibition: -2.3%
PRVABC59, Concentration 198.0 uM, Number of replicates 2.0, Standard deviation 3.223872617761246 %
  inhibition: -2.16%

## COc1cc(COc2cc(C)c(C)nn2)nc(N2CCNCC2)n1
PRVABC59, Concentration 49.5 uM, Number of replicates 2.0, Standard deviation 3.3161813072073656 %
  inhibition: -1.34%
PRVABC59, Concentration 99.01 uM, Number of replicates 2.0, Standard deviation 3.3762495857609713 %
  inhibition: 1.73%
PRVABC59, Concentration 198.0 uM, Number of replicates 2.0, Standard deviation 2.9412727828231984 %
  inhibition: 5.59%

## O=C(NCCNC(=O)c1cc(Cl)ccc1NS(=O)(=O)c1ccc(Oc2ccccc2Cl)cc1)c1ccccc1Cl
[2]
  inhibition: 25%

## CCN(Cc1cccc(Cl)c1)C(=O)c1cc(Cl)ccc1NS(=O)(=O)c1ccc(Oc2ccccc2Cl)cc1
[2]
  inhibition: 29.5%

## CNC(=O)c1cc(Cl)ccc1NC(=O)[C@H]1CCN(c2ccc(Cl)c(Cl)c2)C1=O
PRVABC59, Concentration 49.5 uM, Number of replicates 2.0, Standard deviation 2.496560479347894 %
  inhibition: 2.4%
PRVABC59, Concentration 99.01 uM, Number of replicates 2.0, Standard deviation 3.1993564176484743 %
  inhibition: 2.43%
PRVABC59, Concentration 198.0 uM, Number of replicates 2.0, Standard deviation 3.3178510389048217 %
  inhibition: 1.41%

## O=Cc1ccc(N2CCC(C(=O)Nc3ncc(F)cc3Br)CC2)cc1
[1]
  inhibition: 19.1%
